This is an account of results in the supplement of paper PMC11417369.

± gives the standard deviation of the averaged measurements. Some of the results follow.

This assay concerns PfAP2-G AP2 domain (GST-tagged). The assay is described as follows: gcPBM binding intensity (ln(normalized median fluorescence intensity)); higher = stronger DNA binding. The essentials: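 In this array assay, P. falciparum DNA-binding domains with a GST tag, expressed in E. coli, were applied for 1 h to primer-extended double-stranded 36-bp intergenic genomic probes and negative controls on an Agilent 4 × 180k array. Bound protein was visualised with Alexa488 anti-GST antibody at 488 nm. Binding intensity is the highest Masliner-normalised natural-log median intensity across replicate spots of either probe orientation.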
In the case of “ATATATATGCATAATACACACATCATATAATTAACC [CACACA_site1643]”, the “gcPBM binding intensity (ln)” value is 10.1 ± 0.13. On to “AAAGAAAAAAAATAATGTACTTATGTATTTCAGAAA [XGTACX_site3570]”, for which the “gcPBM binding intensity (ln)” value worked out at 11.1 ± 0.73.

As to “TTTCATAAGAGAAAGACACACAAATATATATTTATT [CACACA_site827]”, the “gcPBM binding intensity (ln)” value was found to be 9.86 ± 0.16.

Turning to “ACATTACCATATAAAACACACAAACATACATACATA [CACACA_site7709]”, the “gcPBM binding intensity (ln)” value worked out at 10.15 ± 0.092.

On to “TATAATATTTGGTGCACACAAATTAACAACTGTTTA [CACACA_site3742]”, for which the “gcPBM binding intensity (ln)” value was found to be 10.8 ± 0.73.

With “ATTTTTTTTTTTAATACACACAATTTTGATGAAGCA [CACACA_site3157]”, the “gcPBM binding intensity (ln)” value came to 10.2 ± 0.28. As for “TATCCATGCATTTACACACACACAAAAAAAAATTCT [CACACA_site4100]”, the figure is 10.3 ± 0.38; as for “ATAATAAAAAATACAAGTACACATATTATATATATA [XGTACX_site5355]”, 11.4 ± 0.79; as for “AATGCTATCATTAATGCACACATTTAAAATTAATAT [CACACA_site3548]”, 10.1 ± 0.24. Regarding “TTTAAAACCTTACATACACACAAATATATATATATA [CACACA_site677]”, the “gcPBM binding intensity (ln)” value was 9.98 ± 0.45. On to “TTTAAGTTTTTACTTTGTACGTATTATAATAAAATC [XGTACX_site5683]”, for which the “gcPBM binding intensity (ln)” value came to 11.5 ± 0.79. Regarding “TATATTTACTTATGAAGTACATATATATATATATAT [XGTACX_site5069]”, the “gcPBM binding intensity (ln)” value stood at 11.4 ± 1. In the case of “TGTTCTTTTTATACTACACACTGATAAAAAAACAAA [CACACA_site3001]”, the “gcPBM binding intensity (ln)” value was 10.3 ± 0.33. For “CAAACAATTAAACAAACACACATATACAAGTATTTA [CACACA_site5177]”, the “gcPBM binding intensity (ln)” value was found to be 9.94 ± 0.12. As for “ATACATACATATATATGTACTTATATTTTACACATT [XGTACX_site1688]”, the figure is 11.2 ± 0.75; as for “TACAATCTAAGGAGCACACAAAAATGGATAAATATA [CACACA_site933]”, 10.4 ± 0.18; as for “TAATAAAAGAAAAAAAGTACAGACATATTGAATTTT [XGTACX_site5044]”, 11.5 ± 0.93. As to “TTTATTTTCATATGAACACACATATTTATATTATAA [CACACA_site7165]”, the “gcPBM binding intensity (ln)” value came out at 10.1 ± 0.13.

Consider “GCTTGAATAATCAATAGTACACACATATAAATATAT [XGTACX_site5964]”, for which the “gcPBM binding intensity (ln)” value amounted to 11.2 ± 0.82.

Regarding “AACACAAGAACAGAACGTACACACACATATATATAT [XGTACX_site7347]”, the “gcPBM binding intensity (ln)” value was found to be 11.3 ± 0.61.

As to “AGGTGTGAGACCACGTTCACAAAATAAAATACATAA [CACACA_negctrl_site326]”, the “gcPBM binding intensity (ln)” value amounted to 10.8 ± 0.53.

As for “AATTTCTACTATTGTATGCACTTTCATACATACATA [GTGCAC_site9924]”, the “gcPBM binding intensity (ln)” value is 10.3 ± 0.2. Regarding “TTTTTTTTTTTTTTTTGTACTCATACATACTATCAT [XGTACX_site3650]”, the “gcPBM binding intensity (ln)” value came to 11.1 ± 1.1.

With “ACATCAAGCAGACACACACACACACCCACCCACCCA [CACACA_site8012]”, the “gcPBM binding intensity (ln)” value stood at 10.6 ± 0.28.

As for “CAGGCACTAATAAACACACACATATAAATATAAATA [CACACA_site6320]”, the “gcPBM binding intensity (ln)” value came out at 9.975 ± 0.078. Turning to “CAAAACCTTTTATGTACACACATATACATCCCACTT [CACACA_site5716]”, the “gcPBM binding intensity (ln)” value stood at 11.5 ± 0.91.

In the case of “ATATATATATAATTTTGTACATAATAGCAATTCTAA [XGTACX_site653]”, the “gcPBM binding intensity (ln)” value stood at 10.6 ± 0.32. Take “GGATGGAGTAGTTAAGCATAATAAATAAAATTATGT [CACACA_negctrl_site578]”: the “gcPBM binding intensity (ln)” value was 10 ± 0.22. On to “GTTTTAAACAAAAATTGTACAATATAATCTTCCTAT [XGTACX_site2851]”, for which the “gcPBM binding intensity (ln)” value came out at 10.9 ± 0.4. Regarding “AACAACTATTAATTTACACACATGTATATATTTTAC [CACACA_site3116]”, the “gcPBM binding intensity (ln)” value was 10.3 ± 0.33.

Take “AATAGCTAGCTGTGCACACAAACATATTTTCCAAAT [CACACA_site880]”: the “gcPBM binding intensity (ln)” value was determined as 10.4 ± 0.2. In the case of “GTTAAGAATATGTGTACACATATACATAAATACATA [CACACA_site4254]”, the “gcPBM binding intensity (ln)” value came out at 11.6 ± 0.95. Consider “TAATAATATTATTAATGTACAAATATATATACATAT [XGTACX_site7348]”, for which the “gcPBM binding intensity (ln)” value is 10.8 ± 0.37. With “TATATATATATATATTGTACCCTTTTCAAACTTCTC [XGTACX_site2812]” the figure was 11 ± 0.79; with “CCACAAGCAGCGGAAACATGCATATGTTGAAATAAT [TGCATGCA_site610]”, 9.86 ± 0.042.

Consider “TCATTTCACAAACACACACACACAATATATTTCCTT [CACACA_site3905]”, for which the “gcPBM binding intensity (ln)” value worked out at 10.075 ± 0.007. For the sequence “AACAAAAAAAAAAAATGTACATATATATAATATATT [XGTACX_site3829]”, the “gcPBM binding intensity (ln)” value is 11 ± 0.59. “TATTTTATTATACCAAGTACAAAATTTAAATATGAA [XGTACX_site5478]”: the “gcPBM binding intensity (ln)” value was found to be 10.8 ± 0.64. Consider “TATAAGAGAATATATACACACAAAAATAAATACAGT [CACACA_site5000]”, for which the “gcPBM binding intensity (ln)” value amounted to 10.27 ± 0.064.

With “ATTTTATGTTGAAAGTGTACGTATTAATATGTAGAA [XGTACX_site245]”, the “gcPBM binding intensity (ln)” value was 11.6 ± 0.95. Take “AATATCATCCTTTTTTTTTATAAAATTTAAAATATA [CACACA_negctrl_site844]”: the “gcPBM binding intensity (ln)” value was found to be 9.95 ± 0.14. As for “ACCTCACAAATGAATACACACAAACATATATATTTA [CACACA_site4976]”, the figure is 10.2 ± 0.21; as for “AAATATAAAAATAGCACACATATATACCTATATATA [CACACA_site4204]”, 9.96 ± 0.11; as for “GCATTGGGAATATATAGTACATATATATATATATAA [XGTACX_site2967]”, 10.9 ± 0.78. As for “GGATTGATAAGTGGTACACACATATATATTATATAT [CACACA_site2866]”, the “gcPBM binding intensity (ln)” value was 11.5 ± 1.
